The record followed here is PMC6212790.

Some of the results follow. At the low end of the ranking the order means little.

This assay concerns the target T1, GST-Rok (full length) (UniProt O34857).
T1 sequence: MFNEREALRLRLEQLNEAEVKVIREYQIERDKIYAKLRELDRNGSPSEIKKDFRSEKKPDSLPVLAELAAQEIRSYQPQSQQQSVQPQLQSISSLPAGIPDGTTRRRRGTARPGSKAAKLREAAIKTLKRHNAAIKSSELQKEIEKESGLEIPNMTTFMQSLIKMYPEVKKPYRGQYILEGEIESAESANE
As to the kind of experiment: protein binding microarray.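 Further: rank score from −0.5 (least bound) to 0.5 (best bound).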 The settings on record: Rok is a gene silencer of Bacillus subtilis; high values mean tight binding; most listed sequences are background and not binding sites; double strand, one strand shown.
The sequence CGCATGTA displayed a binding signal of 0.0901 E-score.

Consider GTCGCCGA, for which the binding signal is -0.1 E-score.

Sequence GAGCATCA returned a binding signal of -0.0826 E-score.

Turning to ACTGAGTC, the binding signal is -0.21 E-score.

Sequence AAAATATG came in with a binding signal of 0.278 E-score.

ATAAGTAA registered a binding signal of 0.267 E-score.

Consider ATCATTTA, for which the binding signal turned out to be 0.334 E-score.

CAATAATA: the binding signal came out at 0.352 E-score.

On to GCCGTGAA, for which the binding signal was -0.0714 E-score.

With TGATAAAA, the binding signal was determined as 0.27 E-score.

With CTCATGTC, the binding signal is -0.19 E-score.

ACAACCGA registered a binding signal of 0.145 E-score.

Turning to ATCTGAGA, the binding signal was -0.0192 E-score.

Sequence AGAGGTTC came in with a binding signal of -0.315 E-score.

Turning to AAGAGGCA, the binding signal is -0.367 E-score.

Turning to TGGAAAAA, the binding signal is 0.0512 E-score.

ACTGTAGC showed a binding signal of 0.192 E-score.

Regarding CCGTCGAA, the binding signal is -0.144 E-score.

AGAAGAGC: the binding signal is -0.29 E-score.

For AAGTAAAA, the binding signal stood at 0.246 E-score.

On to CTGACGAA, for which the binding signal is -0.0116 E-score.

For GTGGGCGA, the binding signal is -0.181 E-score.

The sequence AGGGCACG came in with a binding signal of -0.378 E-score.

Sequence ATAACGTC came in with a binding signal of 0.21 E-score.

CTATTACC displayed a binding signal of 0.301 E-score.

In turn, CCACGTCA yielded a binding signal of -0.121 E-score.

Regarding ACTCCGAA, the binding signal was -0.0948 E-score.

Sequence ACTTATGC returned a binding signal of 0.139 E-score.

With GGGCAAGA, the binding signal was -0.145 E-score.

Take CTAGCGTC: the binding signal was -0.0555 E-score.

ACTCTTCC showed a binding signal of -0.0862 E-score.

In turn, GCCCGCCC had a binding signal of -0.43 E-score.

As to TTAGTAAA, the binding signal amounted to 0.237 E-score.

For CGCGATCA, the binding signal is -0.176 E-score.

The sequence CCATCGAC displayed a binding signal of -0.12 E-score.

ATGCAGCC came in with a binding signal of -0.187 E-score.

AAACCCGT had a binding signal of -0.0147 E-score.

In the case of GCGTAAAC, the binding signal was determined as 0.0765 E-score.

As to AGTTCCGA, the binding signal stood at 0.0258 E-score.

On to TACGTATA, for which the binding signal was found to be 0.35 E-score.

In turn, ACGGACCG had a binding signal of -0.149 E-score.

For the sequence GTCCTATA, the binding signal worked out at 0.122 E-score.

In turn, CTTTTGCC registered a binding signal of -0.0119 E-score.

The sequence ACCACCGA returned a binding signal of 0.0236 E-score.

As to CCTGCCTC, the binding signal was -0.185 E-score.

As to GCTTTTGA, the binding signal is -0.132 E-score.

In turn, ATGACCAC came in with a binding signal of -0.0522 E-score.

With ATAACAAA, the binding signal came to 0.196 E-score.

The sequence CGGAGCCC came in with a binding signal of -0.386 E-score.

Regarding ACTAAGTC, the binding signal turned out to be 0.132 E-score.

Sequence CCCTTCTC yielded a binding signal of -0.29 E-score.

Regarding CCGTAGTC, the binding signal is -0.295 E-score.

CCTATGCC returned a binding signal of -0.0371 E-score.

On to AGCACTTG, for which the binding signal was -0.104 E-score.

Take AGCCTGAC: the binding signal was -0.0307 E-score.

CATTTCTC: the binding signal came to 0.0814 E-score.

In turn, CGACGAGA came in with a binding signal of -0.0756 E-score.

Consider AACGAGGG, for which the binding signal was -0.183 E-score.

In turn, CCCTCGCG returned a binding signal of -0.279 E-score.

Consider AAGTTACG, for which the binding signal stood at 0.182 E-score.

ATAACGCC yielded a binding signal of -0.0927 E-score.

On to AATGCCTC, for which the binding signal was -0.155 E-score.

As for ACGAACAG, the binding signal was determined as 0.134 E-score.

ATGCTGTA came in with a binding signal of 0.193 E-score.

The sequence CCCGTGAG came in with a binding signal of -0.246 E-score.

CGTAGCCA gave a binding signal of -0.253 E-score.

Take CCCTTAGG: the binding signal is -0.332 E-score.

AATTAAGA showed a binding signal of 0.156 E-score.

CGTCGCGC showed a binding signal of 0.0557 E-score.

Take CGAGAACG: the binding signal is -0.0349 E-score.

Regarding CAACGGAA, the binding signal came out at 0.0501 E-score.

In turn, CACAGACG returned a binding signal of 0.0562 E-score.

ACTTATGG registered a binding signal of 0.102 E-score.

Regarding AGGGTTGG, the binding signal was -0.183 E-score.

AATCCATG returned a binding signal of 0.108 E-score.

Sequence ATATGACC showed a binding signal of 0.165 E-score.

In turn, GCCCGGGC returned a binding signal of -0.292 E-score.

With ATGACGTG, the binding signal is -0.0428 E-score.

As for CGGTCAAC, the binding signal was determined as 0.0109 E-score.

GTTCTTAA had a binding signal of 0.122 E-score.

Sequence CCTACCCA came in with a binding signal of 0.0514 E-score.

GTAACCGA showed a binding signal of 0.00566 E-score.

For AACGCTCA, the binding signal is 0.000114 E-score.

In the case of ATTAATAA, the binding signal came to 0.182 E-score.

For TCAAGGAA, the binding signal was -0.162 E-score.

With GCGTGGCC, the binding signal was -0.265 E-score.

For the sequence GCTTAGGA, the binding signal was -0.0994 E-score.

For CAGTCCGC, the binding signal is -0.319 E-score.

CTCGTTGA showed a binding signal of 0.0441 E-score.

Consider CCGGTTCC, for which the binding signal was -0.18 E-score.

Sequence ACTTTTAC came in with a binding signal of 0.224 E-score.

As for ACTGATAA, the binding signal is 0.273 E-score.

TCGCGCCA: the binding signal is -0.0522 E-score.

As to CTAATAGC, the binding signal was 0.2 E-score.

For the sequence ATACACAA, the binding signal amounted to 0.191 E-score.

In turn, AGCATACG came in with a binding signal of 0.116 E-score.

On to AAAACACC, for which the binding signal came to 0.0147 E-score.

For the sequence ACTATACC, the binding signal is 0.292 E-score.

Consider ATCAGAAT, for which the binding signal amounted to 0.133 E-score.

As for TTACAGAA, the binding signal is 0.259 E-score.

TATCAAGA: the binding signal was found to be 0.227 E-score.

CGAGTGTA: the binding signal amounted to 0.104 E-score.

AGACTCGC came in with a binding signal of -0.177 E-score.

AAACAATC displayed a binding signal of 0.019 E-score.

In turn, AATGACAG returned a binding signal of -0.0787 E-score.

ACACCTGA: the binding signal is 0.0581 E-score.

For CGGATATC, the binding signal is 0.209 E-score.

Regarding GTTGCGTA, the binding signal came to 0.074 E-score.

For the sequence ATTTGTAC, the binding signal was found to be 0.329 E-score.

TGACCGCA registered a binding signal of -0.16 E-score.

With AAGACTTC, the binding signal was -0.0321 E-score.

Turning to AAGCCGGC, the binding signal is -0.22 E-score.

In the case of AGGCAGGA, the binding signal is -0.042 E-score.

Take GCGACTAC: the binding signal was determined as 0.0185 E-score.

Regarding GCCGATAC, the binding signal was 0.0839 E-score.

As to ATGGAAAC, the binding signal was found to be 0.128 E-score.

ACCTCACC came in with a binding signal of -0.0233 E-score.

With AGCCTAGC, the binding signal was -0.245 E-score.

In turn, ATTTGCCC came in with a binding signal of -0.0605 E-score.

For the sequence CCCGCTGC, the binding signal is -0.321 E-score.

In the case of CCTATTAG, the binding signal is 0.172 E-score.

For CACGATCG, the binding signal was -0.088 E-score.

For AAGAAGAG, the binding signal is -0.106 E-score.

TGGTAGAA showed a binding signal of 0.468 E-score.

In the case of AGTCCCTA, the binding signal was -0.0971 E-score.

The sequence CGACCGCA returned a binding signal of -0.0937 E-score.

The sequence CTACTAAA showed a binding signal of 0.357 E-score.

The sequence CGTCCATC yielded a binding signal of -0.274 E-score.

The sequence AGGGCAAA came in with a binding signal of 0.0546 E-score.

GCTAGGGA had a binding signal of -0.194 E-score.

Regarding CCGCAAAG, the binding signal was -0.224 E-score.

With AATAGACG, the binding signal is -0.0243 E-score.

GCGGGTGA gave a binding signal of -0.235 E-score.

CAGACTAC: the binding signal came to 0.127 E-score.

AGGAACCG registered a binding signal of -0.143 E-score.

The sequence CTTATAAA registered a binding signal of 0.0863 E-score.

Sequence GGGGCACC came in with a binding signal of -0.364 E-score.

Sequence ACGGCTCG had a binding signal of -0.211 E-score.

With GCGAGTAA, the binding signal came to 0.115 E-score.

Consider GGGTCATA, for which the binding signal is -0.0384 E-score.

Take CGTCAGAA: the binding signal was -0.0471 E-score.

In the case of TAGCCGGA, the binding signal is -0.0641 E-score.

In the case of CAGAATGC, the binding signal came out at 0.0167 E-score.

Consider GAGACCCC, for which the binding signal is -0.406 E-score.

For ATACTGTA, the binding signal came out at 0.34 E-score.

The sequence ATCCCCTG came in with a binding signal of -0.118 E-score.

GTTGGATA: the binding signal amounted to 0.0397 E-score.

CCCGTACC registered a binding signal of -0.186 E-score.

Sequence AATAGGTG had a binding signal of 0.125 E-score.

ATTGGACA: the binding signal came out at 0.0304 E-score.

For the sequence AAGGATGA, the binding signal was -0.0336 E-score.

In turn, GTAAGTAC registered a binding signal of 0.26 E-score.

With GTCTTTCA, the binding signal was -0.0505 E-score.

GCCGAGAC returned a binding signal of -0.166 E-score.

AACACAAC: the binding signal was 0.137 E-score.

For the sequence GCTTTGCC, the binding signal is -0.246 E-score.

CACACCAG gave a binding signal of -0.0365 E-score.

With CTGGTTAA, the binding signal was -0.044 E-score.

Take CTATCTCC: the binding signal is 0.0663 E-score.

In turn, AAATACGG returned a binding signal of 0.21 E-score.

CCTACGCA yielded a binding signal of -0.0529 E-score.

On to CTAGTAAC, for which the binding signal stood at 0.303 E-score.

In turn, GATGGTAC returned a binding signal of -0.0105 E-score.

For AACACACC, the binding signal is 0.034 E-score.

ATCTCAAC showed a binding signal of -0.0611 E-score.

AATTGGTC registered a binding signal of 0.0556 E-score.

Sequence AGTACCCA displayed a binding signal of -0.0295 E-score.

For AACCTGGT, the binding signal is -0.115 E-score.

Sequence CAGAGCCA gave a binding signal of -0.125 E-score.

As for CCGCCATC, the binding signal was -0.429 E-score.

On to TAAGTTGA, for which the binding signal came out at 0.0854 E-score.

Sequence ATCGACGG returned a binding signal of -0.185 E-score.
